# The campaign covered roughly 310,000 compounds. About 2,200 (0.71%) showed an effect of 50% or more. Effects have a minus sign here. The list shows a part of the results.
# Target: human ether-à-go-go-related gene (hERG) potassium channel (human, UniProt Q12809)
# Assay: primary screen, population patch clamp on CHO cells stably expressing hERG
# Sequence of human ether-à-go-go-related gene (hERG) potassium channel (Q12809 whole entry, looked up): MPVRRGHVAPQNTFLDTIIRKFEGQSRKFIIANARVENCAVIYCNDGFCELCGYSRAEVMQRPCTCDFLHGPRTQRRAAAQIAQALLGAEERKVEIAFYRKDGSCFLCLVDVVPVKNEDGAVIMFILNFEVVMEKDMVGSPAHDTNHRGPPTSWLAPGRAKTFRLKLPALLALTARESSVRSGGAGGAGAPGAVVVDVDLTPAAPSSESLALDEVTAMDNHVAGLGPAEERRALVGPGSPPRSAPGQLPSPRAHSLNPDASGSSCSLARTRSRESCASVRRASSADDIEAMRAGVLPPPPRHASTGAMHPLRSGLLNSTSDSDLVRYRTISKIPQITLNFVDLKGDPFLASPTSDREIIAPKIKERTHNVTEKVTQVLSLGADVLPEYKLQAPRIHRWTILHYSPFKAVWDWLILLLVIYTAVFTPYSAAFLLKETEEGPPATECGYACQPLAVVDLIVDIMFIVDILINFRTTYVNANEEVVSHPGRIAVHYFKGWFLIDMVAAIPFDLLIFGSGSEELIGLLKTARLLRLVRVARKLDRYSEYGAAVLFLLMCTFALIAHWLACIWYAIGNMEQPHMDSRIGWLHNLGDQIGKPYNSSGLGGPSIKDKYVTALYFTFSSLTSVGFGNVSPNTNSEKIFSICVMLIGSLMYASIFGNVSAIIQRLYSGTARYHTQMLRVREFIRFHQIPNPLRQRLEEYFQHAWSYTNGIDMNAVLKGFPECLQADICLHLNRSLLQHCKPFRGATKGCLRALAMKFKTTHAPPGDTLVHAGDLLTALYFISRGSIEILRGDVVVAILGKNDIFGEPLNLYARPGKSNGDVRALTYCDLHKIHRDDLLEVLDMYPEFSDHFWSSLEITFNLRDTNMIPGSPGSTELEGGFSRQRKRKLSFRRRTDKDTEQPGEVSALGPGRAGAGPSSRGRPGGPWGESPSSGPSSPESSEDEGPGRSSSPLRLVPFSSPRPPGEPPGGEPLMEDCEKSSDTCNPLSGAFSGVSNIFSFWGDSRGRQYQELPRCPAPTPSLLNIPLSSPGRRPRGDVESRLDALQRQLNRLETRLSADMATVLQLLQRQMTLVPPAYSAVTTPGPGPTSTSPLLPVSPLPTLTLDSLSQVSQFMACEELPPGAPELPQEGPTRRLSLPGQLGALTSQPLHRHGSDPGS
row,SMILES,"hERG current change (%, negative = inhibition) at 1uM"
1,COc1ccc(-n2c(O)c(C(C)=NCc3ccco3)c(=O)[nH]c2=O)cc1,-5.52%
2,O=C(Nc1cc(C(F)(F)F)ccc1-n1cncn1)c1ccc(F)cc1Cl,4.22%
3,CC(C)c1ccccc1NC(=O)CNCCc1ccc(C(F)(F)F)cc1.O=C(O)C(=O)O,5.68%
4,O=C(COC(=O)c1cnccn1)NCc1ccc2c(c1)OCO2,10.9%
5,O=C(NCCc1ccco1)C(=O)NCC1OCCCN1S(=O)(=O)c1ccccc1 (stereo not shown),13.4%
6,COc1ccc(N(CC(=O)Nc2cccc(C)c2C)S(=O)(=O)c2c(C)[nH]c(=O)[nH]c2=O)cc1,10.4%
7,CCC12CN(C(=O)c3ccc(C)cc3)CC(CC)(CN(C(=O)c3ccc(C)cc3)C1)C2=O,1.35%
8,O=C(/C=C/c1ccc(Cl)c([N+](=O)[O-])c1)c1ccc(O)cc1,12.6%
9,CC(=O)Oc1ccc(-c2cccc(C(=O)Oc3ccccc3)c2)cc1,14.1%
10,COc1ccc(C)cc1NC(=S)Nc1ccccc1SC,4.16%
11,CCCc1c(C)nn(C(=O)/C(C#N)=N/Nc2ccccc2[N+](=O)[O-])c1C,15.9%
12,Cc1ccc(CNc2ncc(-c3ccc4c(c3)OCO4)n2C)cc1.O=C(O)C(=O)O,-10%
13,Br.Oc1ccc(-c2cn3ccccc3n2)cc1,6.23%
14,COc1cc(OC)cc(C(=O)NCC(=O)OCC(=O)NC(C)(C)C)c1,15.1%
15,CCCCCCC(=O)NCC(=O)OCC(=O)c1ccccc1,-2.3%
16,Cc1csc(SCC(=O)Nc2nccs2)n1,10%
17,O=C(NCc1ccc(Cl)cc1)c1cccc(NC2=NC3CS(=O)(=O)CC3S2)c1 (stereo not shown),0.469%
18,COc1cc(Br)c(CN2CCCN(C)CC2)cc1OC,8.5%
19,NC(=O)CNCCC(c1ccccc1)c1ccccc1,-3.29%
20,CCC(C(=O)NCCc1ccc(OC)cc1OC)n1nc(C)n2c(cc3occc32)c1=O (stereo not shown),0.58%
21,CCOc1ccc(S(=O)(=O)N2Cc3ccccc3CC2C(=O)O)cc1 (stereo not shown),15.8%
22,OCC(O)C(O)C(O)C(O)C1NCCS1 (stereo not shown),9.15%
23,COC(=O)c1ccc(N2NC(=O)/C(=C/c3ccc(OC)c(OC)c3)C2=O)cc1,14.7%
24,CCC1=NC(c2ccc(OC)cc2OC)N(O)C1(C)C (stereo not shown),0.757%
25,Cn1nc(C(=O)N2CCCCC2)c2c1-c1ccccc1S(=O)(=O)C2,13.1%
26,CCOC(=O)c1ccc(N2CSC3=C(C#N)C(c4cccs4)CC(=O)N3C2)cc1 (stereo not shown),12.2%
27,COc1cc2cnc(-c3ccccc3)c(C(=O)c3ccc(F)cc3)c2cc1OC,7.27%
28,COc1cc2ccccc2cc1C(=O)N(CCN(C)C)c1nc2c(C)cccc2s1.Cl,16.3%

row,SMILES,"hERG current change (%, negative = inhibition) at 1uM"
1,O=c1c2ccccc2nc(-c2ccco2)n1/N=C/c1ccccc1O,7.11%
2,O=C1CCc2ccc(OCCCCN3CCN(c4cccc(Cl)c4Cl)CC3)cc2N1,9.3%
3,COc1cccc2sc(N(CCCN(C)C)C(=O)c3ccc(S(=O)(=O)N4CCc5ccccc5C4)cc3)nc12.Cl,9.59%
4,Cc1oc(C)c2c(=O)ccc3c(c12)OC(N)=C(C#N)C3c1ccccc1Cl (stereo not shown),8.67%
5,Cc1ccc(C(=O)Nc2ccccc2C(=O)NC2CCCCC2)cc1S(=O)(=O)N1CCOCC1,22%
6,O=C(C1=C[C@@H](c2ccccc2)C[C@@H](OCCCCO)O1)N1CCN(Cc2ccc3c(c2)OCO3)CC1,-10.6%
7,Cc1cc(Br)ccc1OCCCCN1CCCCC1.O=C(O)C(=O)O,-66.6%
8,Cc1ccc2c(c1)N(CC(=O)N1CCCCCC1)C(=O)CO2,6.11%
9,COc1ccc(C=C2C(=O)N(C)C(=O)N(C)C2=O)cc1COc1ccc(NC(C)=O)cc1,10.1%
10,Brc1cccc(OCCCCn2cncn2)c1,12.9%
11,Clc1ccc(-c2ccc(C=Nc3ccc(N4CCOCC4)cc3)o2)c(Cl)c1,6.06%
12,COc1ccc(N2CCN(C(=O)CN(c3ccc(OC)cc3)S(=O)(=O)c3ccccc3)CC2)cc1,-2.11%
13,Cc1cc(OC(C)C(=O)NC2CC(C)(C)NC(C)(C)C2)c2c(C)cc(=O)oc2c1 (stereo not shown),16.8%
14,O=C1c2cccc3cccc(c23)N1CN1CCN(c2ccccn2)CC1,14.6%
15,NS(=O)(=O)c1ccc(CCNC(=O)C2CCN(c3ncnc4c3nc3n4CCCCC3)CC2)cc1,12.5%
16,O=C(c1cc(Br)c(Br)s1)N1CCN(c2ccccn2)CC1,9.19%
17,Cc1c(NCc2ccccc2O)c(=O)n(-c2ccccc2)n1C,-2.78%
18,CCN1C(=O)C(=O)N(CC(=O)c2cc(C)n(C3CC3)c2C)C1=O,5.71%
19,COc1ccc(NC(=S)NC(NC(C)=O)C(Cl)(Cl)Cl)c([N+](=O)[O-])c1 (stereo not shown),8.28%
20,Cc1ccc(Cn2nnc3c(=O)n(CC(=O)NCc4ccc5c(c4)OCO5)cnc32)cc1,3.38%
21,CC(C)OCCCNC(=O)COc1ccc2oc3c(c2c1)CCCC3,11.1%
22,O=C(Nc1cccc(N2C(=O)C3C4C=CC(C4)C3C2=O)c1)c1cccs1 (stereo not shown),14.8%
23,COCCn1c(SCC(=O)Nc2cccc(OC)c2)nnc1-c1ccccc1,3.2%
24,O=C(NCCCN1CCCC1=O)Nc1ccccc1F,13.1%
25,O=c1nc2ccc(Cl)cn2c2ccc(S(=O)(=O)N3CCOCC3)cc12,11.3%
26,CCCC(C)c1nnc(NC(=O)CS(=O)(=O)Cc2ccccc2)s1 (stereo not shown),3.48%
27,Cc1[nH]c(=O)[nH]c(=O)c1Sc1ccccc1[N+](=O)[O-],14.9%
